Results are given in words; binding and its absence hold for the method and conditions named. In cells and extracts the contact can be indirect. Some binding calls cover weakened binding; strength is not graded here. For part of these data: Where a sequence is shown, tags or fusion partners need not be part of it.
Columns and labels:
[1] = molecular target: FLAG-FEN1 aa175-366 (pHM4273) (UniProt P39748); assay: co-IP
[2] = molecular target: T1, FLAG-MLKL (pHM5117) (human) (UniProt Q8NB16); assay: co-IP
T1 sequence: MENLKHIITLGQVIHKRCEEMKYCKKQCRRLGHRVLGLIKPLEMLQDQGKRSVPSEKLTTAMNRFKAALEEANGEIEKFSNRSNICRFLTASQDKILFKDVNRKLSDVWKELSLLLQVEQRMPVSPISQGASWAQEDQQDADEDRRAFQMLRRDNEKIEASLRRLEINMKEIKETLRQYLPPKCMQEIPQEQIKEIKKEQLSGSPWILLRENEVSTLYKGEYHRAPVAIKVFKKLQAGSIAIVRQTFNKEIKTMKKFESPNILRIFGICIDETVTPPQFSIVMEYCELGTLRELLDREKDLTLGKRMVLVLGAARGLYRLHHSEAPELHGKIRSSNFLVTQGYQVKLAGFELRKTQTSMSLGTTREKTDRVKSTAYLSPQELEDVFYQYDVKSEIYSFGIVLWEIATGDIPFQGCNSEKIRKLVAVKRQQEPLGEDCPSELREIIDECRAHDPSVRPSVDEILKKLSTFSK

Sequences of proteins named here, by UniProt entry; tags and fusion partners are left off. A change or cut given only in a name is not applied to a line headed by its entry. A line that says so, or that is headed by a name, gives the form on record, which may keep a tag or linker. Residues count along the entry.
UniProt P39748, residues 175-366: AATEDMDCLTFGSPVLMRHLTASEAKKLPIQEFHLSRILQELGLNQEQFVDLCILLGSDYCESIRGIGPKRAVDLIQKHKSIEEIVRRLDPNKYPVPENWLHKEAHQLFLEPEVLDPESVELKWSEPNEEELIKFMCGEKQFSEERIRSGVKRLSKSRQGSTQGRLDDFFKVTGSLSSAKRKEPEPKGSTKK
UniProt Q9Y572: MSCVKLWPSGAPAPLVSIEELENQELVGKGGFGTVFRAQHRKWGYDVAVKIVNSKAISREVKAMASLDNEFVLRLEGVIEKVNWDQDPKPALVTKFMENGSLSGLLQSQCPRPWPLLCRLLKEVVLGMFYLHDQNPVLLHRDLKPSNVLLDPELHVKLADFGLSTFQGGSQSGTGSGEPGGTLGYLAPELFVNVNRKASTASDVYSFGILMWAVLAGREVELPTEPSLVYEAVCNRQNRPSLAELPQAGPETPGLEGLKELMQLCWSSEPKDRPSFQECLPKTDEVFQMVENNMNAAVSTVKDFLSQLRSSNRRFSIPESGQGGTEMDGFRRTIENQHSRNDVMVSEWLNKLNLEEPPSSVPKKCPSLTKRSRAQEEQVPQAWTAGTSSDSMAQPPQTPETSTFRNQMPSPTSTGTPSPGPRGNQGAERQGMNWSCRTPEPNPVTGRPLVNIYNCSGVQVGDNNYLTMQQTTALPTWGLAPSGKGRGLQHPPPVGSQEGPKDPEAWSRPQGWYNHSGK
FLAG-tagged RIPK3 mutant aa1-443: residues 1-443 of Q9Y572

[3] = molecular target: FLAG-tagged RIPK3 (human) (UniProt Q9Y572); assay: co-IP
[4] = molecular target: FLAG-IE1 aa1-491 (pHM5156) (human cytomegalovirus) (UniProt P13202); assay: co-IP; HEK293T transfected with FLAG-tagged IE1 variants and RIPK3; IP with anti-FLAG magnetic beads
[5] = molecular target: FLAG-tagged RIPK3 mutant aa1-443 (human) (UniProt Q9Y572); assay: co-IP; FLAG-tagged RIPK3 variants expressed in HEK293T; purified bacterial IE1 utilized; IP with anti-FLAG magnetic beads; only the binder purified
[6] = molecular target: FLAG-tagged RIPK3 (human) (UniProt Q9Y572); assay: as above

In the case of “immediate-early 1 (IE1) protein of human cytomegalovirus, expressed from pcDNA3 (pHM494) (from UniProt P13202 1-491)”, the binding [1] is reported as “binds”, the binding [2] is reported as “no binding” and the binding [3] is reported as “binds”.
“RIPK3-MYC (pHM5136) (from UniProt Q9Y572 1-518)” was tested, and the binding [4] was “binds”.
“purified IE1 expressed in bacteria (from UniProt P13202 1-491)” was tested, and the binding [5] was “binds” and the binding [6] was “binds”.
